Data as given in PubChem BioAssay AID720708 (National Center for Advancing Translational Sciences (NCATS), 2013).
Hit rate of the full screen: of about 360,000 compounds, about 660 (0.18%) were called active. This list was built around the results that the source calls inconclusive (neither active nor inactive); the mix of calls is not that of the screen. Calls follow the shape of the dose curve; as a rule, active = well fitted inhibition curve with a large enough effect; inconclusive = small, poorly fitted or top-dose-only effect; inactive = no such curve, though single readings can be large or run the other way. No potency is given beside an inconclusive call; the fits are too rough.

Molecular target: Rap guanine nucleotide exchange factor 4 (Homo sapiens) (UniProt Q8WZA2)
Test: qHTS for Antagonist of cAMP-regulated guanine nucleotide exchange factor 2 (EPAC2): primary screen; also: nearly all actives have a fitted effect of over 45% in size
Settings: EPAC2 GEF exchange of Rap1B-BODIPY-GDP, fluorescence; activity, negative = inhibition: at 114 µM (top of the series) unless noted
% is scaled to controls: 0 for no effect and ±100 for the full control effect; potency is read from the fitted curve at half-maximal effect; tags tell the direction and shape of the fitted curve.

Sequence of UniProt Q8WZA2 (Q8WZA2 whole entry, looked up): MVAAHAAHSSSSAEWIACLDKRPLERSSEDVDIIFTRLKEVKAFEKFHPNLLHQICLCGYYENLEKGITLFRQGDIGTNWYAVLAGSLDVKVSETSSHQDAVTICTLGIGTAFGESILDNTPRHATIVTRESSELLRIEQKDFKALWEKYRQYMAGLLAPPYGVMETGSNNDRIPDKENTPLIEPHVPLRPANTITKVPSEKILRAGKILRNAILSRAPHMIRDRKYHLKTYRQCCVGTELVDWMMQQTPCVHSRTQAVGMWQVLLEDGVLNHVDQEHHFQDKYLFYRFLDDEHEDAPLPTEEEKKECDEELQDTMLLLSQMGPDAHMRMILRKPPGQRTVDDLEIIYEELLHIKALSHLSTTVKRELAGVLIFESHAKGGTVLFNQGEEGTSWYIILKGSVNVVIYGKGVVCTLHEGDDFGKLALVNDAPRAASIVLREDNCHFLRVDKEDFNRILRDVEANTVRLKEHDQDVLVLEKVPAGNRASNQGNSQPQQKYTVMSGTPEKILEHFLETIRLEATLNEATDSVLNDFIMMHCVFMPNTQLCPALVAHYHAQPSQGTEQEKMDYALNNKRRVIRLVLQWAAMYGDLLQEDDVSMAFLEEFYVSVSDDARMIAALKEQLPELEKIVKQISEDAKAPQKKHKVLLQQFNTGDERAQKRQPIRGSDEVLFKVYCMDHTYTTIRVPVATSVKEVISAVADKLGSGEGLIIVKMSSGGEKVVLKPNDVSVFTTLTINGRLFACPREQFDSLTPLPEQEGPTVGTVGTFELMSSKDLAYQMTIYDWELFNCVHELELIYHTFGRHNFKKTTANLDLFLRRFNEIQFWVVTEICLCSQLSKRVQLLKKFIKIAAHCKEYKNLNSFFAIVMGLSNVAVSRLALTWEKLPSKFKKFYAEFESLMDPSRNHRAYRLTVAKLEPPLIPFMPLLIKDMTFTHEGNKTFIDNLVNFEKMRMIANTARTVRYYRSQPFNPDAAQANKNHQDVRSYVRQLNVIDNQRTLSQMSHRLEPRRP

Row | Structure (SMILES) | Potency | activity, negative = inhibition
1 | C=CCN(CC=C)Cc1cc(=O)oc2cc(C)c(C)cc12 | inconclusive [inhibitor, partial curve, poor fit] | –
2 | CN(Cc1ccc(F)cc1)C(=O)CN1CCN(S(=O)(=O)c2ccc3c(c2)OCCCO3)CC1 | – | inactive: -5.14%
3 | Cc1ccc(C)c(S(=O)(=O)N/N=C/c2ccc(F)cc2)c1 | inconclusive [inhibitor, partial curve] | –
4 | O=C(O)CCc1ccc(-c2cccs2)n1CC1CCCO1 (configuration not stated) | – | inactive: -5.34%
5 | CCCCCN1CC(=O)N2Cc3[nH]c4ccccc4c3C[C@H]2C1=O | – | inactive: 0.33%
6 | O=C(c1ccco1)N1N=C(c2ccncc2)CC1(O)C(F)(F)F (configuration not stated) | inconclusive [inhibitor, partial curve] | –
7 | CCOC(=O)c1c(C)[nH]c(C(=O)C(C)OC(=O)c2ccc(NC(=O)CC#N)cc2)c1C (configuration not stated) | inconclusive [inhibitor, partial curve] | –
8 | NS(=O)(=O)c1ccc(-c2ccc(/C=C3\SC(=O)NC3=O)o2)cc1 | inconclusive [inhibitor, full curve] | –
9 | COc1ccc(NC(=O)c2ccccc2NS(=O)(=O)c2ccc(C)cc2)c([N+](=O)[O-])c1 | – | inactive: -12%
10 | CC(=O)Nc1ccc(C=NNc2ccc([N+](=O)[O-])cc2S(=O)(=O)Nc2ccccc2C(=O)O)cc1 | inconclusive [inhibitor, partial curve] | –
11 | CN(CCO)C(=O)c1nc[nH]c1C(=O)N(C)Cc1ccccc1 | inconclusive [inhibitor, single point] | –
12 | COc1cccc(CN(C)CC(=O)Nc2c(C)cccc2C(C)C)c1 | inconclusive [inhibitor, partial curve] | –
13 | COc1ccc(Br)cc1[C@H]1[C@H]2C=CC[C@@H](C)[C@@H]2C(=O)N1Cc1ccccc1 | inconclusive [inhibitor, full curve] | –
14 | Cc1cccc2cc(CN(CC(C)C)S(=O)(=O)c3ccccc3)c(=O)[nH]c12 | inconclusive [inhibitor, single point] | –
15 | O=C(O)/C=C/c1cn(Cc2ccccc2)nc1-c1ccccc1 | – | inactive: 0.474%
16 | C/C=C\C=C/C(=O)Nc1cccc(C2=NOC3(C2)C[C@H](C(N)=O)N(C(=O)CC)C3)c1 (some centres not stated) | – | inactive: 3.64%
17 | O=C(NCc1ccoc1)c1ccc(NC(=O)c2ccccc2Cl)cc1 | – | inactive: -4.69%
18 | Cc1cc(C)nc(SCC(=O)c2ccc(Cl)cc2)n1 | inconclusive [inhibitor, single point] | –
19 | CN1CCN(C2=C(Cl)C(=O)c3ccccc3C2=O)CC1 | inconclusive [inhibitor, full curve] | –
20 | Nn1cc(-c2ccccc2)nc1SCC(=O)N1CCN(S(=O)(=O)c2ccc3ccccc3c2)CC1 | inconclusive [inhibitor, partial curve] | –
21 | COC(=O)CCC(=O)OC1(C)C(=O)C2=CN(C3CC3)C(c3ccc(OC)cc3)=CC2=C(Br)C1=O (configuration not stated) | inconclusive [inhibitor, single point] | –
22 | C/C(=N\N(c1ccccc1)c1ccccc1)c1ccc(N)cc1 | inconclusive [inhibitor, partial curve] | –
23 | O=C1Nc2c(Cl)cc(Cl)cc2C1=O | inconclusive [inhibitor, single point] | –

Row | Structure (SMILES) | Potency | activity, negative = inhibition
24 | COc1ccccc1COc1cccn2c(N(C)C(=O)CCC3CCCC3)c(C)nc12 | inconclusive [inhibitor, single point] | –
25 | COC(=O)c1c(NC(=O)C(=O)NCC2CCCO2)sc2c1CC(C)(C)OC2 (configuration not stated) | – | inconclusive: -9.13% [inhibitor]
26 | O=C(O)c1ccccc1NS(=O)(=O)c1ccc(NNC(=S)Nc2ccc(OC(F)F)cc2)c([N+](=O)[O-])c1 | inconclusive [inhibitor, full curve] | –
27 | S=C(NCCc1ccccc1)N/N=C/c1ccccc1Cl | – | inactive: -9.57%
28 | Cc1c(C(=O)Nc2ccc(S(=O)(=O)Nc3ncccn3)cc2)oc2ccccc12 | inconclusive [inhibitor, single point] | –
29 | N#C/C(C(=O)NCc1ccccc1)=C1/SC(Cc2ccc(Cl)cc2)C(=O)N1c1ccccc1 (configuration not stated) | inconclusive [inhibitor, single point] | –
30 | CC1(C)Cc2cccc(OCC(=O)Nc3ccccc3F)c2O1 | inconclusive [inhibitor, partial curve] | –
31 | O=C(NCCS(=O)(=O)N1CCN(c2cccc(Cl)c2)CC1)c1ccc2c(c1)OCO2 | – | inactive: -8.85%
32 | O=c1[nH]ncc2c3ccccc3n(Cc3ccc(F)cc3)c12 | – | inactive: 6.07%
33 | COc1ccc(C2NCCC3(O)CCCCC23)c(OC)c1OC (configuration not stated) | – | inactive: 16.6%
34 | Cc1ccc(NC(=O)CCC(=O)NNC(=O)Cc2ccccc2)cc1C | – | inactive: 13.2%
35 | CC(C)c1cc(C(=O)NCc2ccc(F)cc2)c(N)s1 | inconclusive [inhibitor, single point] | –
36 | O=C1c2cccc3cccc(c23)C(=O)N1CCCc1n[nH]c(=S)n1-c1ccccc1 | inconclusive [inhibitor, single point] | –
37 | O=C(CCSc1ccccc1)Nc1ccc(OCc2ccccc2)cc1 | inconclusive [inhibitor, single point] | –
38 | O=C(NCC1CCCCC1)c1cc(Br)ccc1Cl | inconclusive [inhibitor, single point] | –
39 | Cc1noc(C)c1COC(=O)C(c1ccccc1)c1ccccc1 | – | inconclusive: -30.9% [inhibitor]
40 | CCC/C(=C1/c2ccccc2C(=O)N1c1ccccc1)c1ccc2[nH]ccc2c1 | inconclusive [inhibitor, full curve] | –
41 | CCN(CC)S(=O)(=O)c1cccc(NC(=O)Nc2cccc(C(F)(F)F)c2)c1 | inconclusive [inhibitor, partial curve] | –
42 | CCOc1ccccc1OCCCC(=O)N(CC)CC(=O)Nc1ccc(NC(C)=O)cc1 | – | inactive: 1.96%
43 | O=C(Cn1cnc2scc(-c3cccc([N+](=O)[O-])c3)c2c1=O)NCc1ccco1 | – | inactive: 3.79%
44 | S=c1[nH]nc(-c2cc(-c3ccccc3)n[nH]2)n1/N=C/c1ccc(Cl)c(Cl)c1 | inconclusive [inhibitor, single point] | –
45 | CCCCOc1ccccc1Cn1c(=O)oc2ccc(C)cc21 | inconclusive [inhibitor, partial curve] | –
46 | O=C(CN1C(=O)NC(Cc2c[nH]c3ccccc23)C1=O)Nc1cccc(S(=O)(=O)N2CCCCCC2)c1 (configuration not stated) | inconclusive [inhibitor, partial curve] | –

Row | Structure (SMILES) | Potency | activity, negative = inhibition
47 | Fc1cccc(Cl)c1COc1ccc(-c2nnco2)cc1 | inconclusive [inhibitor, full curve] | –
48 | COC(=O)c1ccc(CC2(C)C(=O)Nc3ccc(-c4cccc(C(F)(F)F)c4)cc32)o1 (configuration not stated) | inconclusive [inhibitor, full curve, poor fit] | –
49 | CCCCn1nnnc1C(c1cc2ccccc2o1)N1CCN(C(=O)OCC)CC1 (configuration not stated) | inconclusive [inhibitor, partial curve] | –
50 | C[N+](C)(CC#N)C/C=C\c1ccccc1 | – | inactive: 5.81%
51 | O=S(=O)(Nc1nc(SCc2ccc(Cl)cc2)n[nH]1)c1ccccc1 | inconclusive [inhibitor, partial curve] | –
52 | CCC(C)c1ccccc1NC(=S)NC(=O)c1ccco1 (configuration not stated) | inconclusive [inhibitor, single point] | –
53 | COc1cc2c(-c3cc(F)cc(F)c3)c(-c3ccsc3)oc(=O)c2cc1OC | inconclusive [inhibitor, single point] | –
54 | O=C(NCCNCc1ccccc1)c1ccco1 | – | inactive: -14.5%
55 | O=C(NC1CCCCCC1)c1ccc[nH]c1=S | – | inactive: -0.328%
56 | O=c1[nH]c(Nc2ccc(F)cc2)cc2ccccc12 | inconclusive [inhibitor, single point] | –
57 | COc1ccc(C(=O)OCC(=O)c2ccc[nH]2)c(OC)c1 | – | inactive: -1.46%
58 | Cc1cccc(C)c1NC(=O)C1(C)CSCC(=O)N1CCc1c[nH]c2ccccc12 (configuration not stated) | – | inactive: 12.4%
59 | COc1ccc(OC)c(C2=NO[C@@](CC(=O)O)(C(=O)Nc3ccc4c(c3)OCCO4)C2)c1 | inconclusive [inhibitor, partial curve] | –
60 | CC(C)NC(=O)C(c1ccc(F)cc1)N(C(=O)CCC(=O)Nc1ccccn1)c1cccc(F)c1 (configuration not stated) | inconclusive [inhibitor, partial curve] | –
61 | CCOc1ccc(N2C(=O)S/C(=C\c3cccn3C)C2=O)cc1 | – | inactive: 0.549%
62 | CCN(CC)S(=O)(=O)c1ccc(C(=O)Oc2coc(CSc3nc(C)cc(C)n3)cc2=O)cc1 | inconclusive [inhibitor, full curve, poor fit] | –
63 | O=C(O)C1=CC[C@@H](c2ccc(Cl)cc2)N(S(=O)(=O)c2ccc(Cl)cc2)[C@H]1c1ccc(Br)cc1 | inconclusive [inhibitor, partial curve] | –
64 | COc1cc(/C=C(\C#N)C(=O)Nc2cccc(C(=O)O)c2)ccc1OCc1ccc(C)cc1 | – | inactive: -23.9%
65 | C#CCOCCOCCOCCNc1nc(N2CCN(C(=O)CCCCCCCCCCNC(=O)[C@H](CO)n3cc(CCCSC)nn3)CC2)nc(N2CCN(C(=O)CCCCCCCCCCNC(=O)[C@H](CCCN=C(N)N)n3cc(C[C@@H](C)CC)nn3)CC2)n1 | inconclusive [inhibitor, partial curve, poor fit] | –
66 | CSC(SC)=C(C(C)=O)C(=O)c1ccc(C)cc1 | inconclusive [inhibitor, partial curve] | –
67 | CSc1cccc(CN2CCC(Oc3cccc(C(=O)N4CCCC4)c3)CC2)c1 | inconclusive [inhibitor, full curve, poor fit] | –
